# In PubChem BioAssay AID463173 (ICCB-Longwood Screening Facility, Harvard Medical School, 2010):
# About 4,300 (8.3%) of roughly 52,000 compounds were called active. Rule as the data show it: active = survival mostly below about 52% (no sharp cut-off); inactive = mostly above about 56%. The list shows a part of the results.
# Tested on: DeltatarO mutant
# Assay: growth inhibition of S. aureus wild type versus tarO mutant, primary screen, teichoic acid synthesis inhibitors, RN4220, OD600 (AID 463173)
# Conditions: OD600, 18 h, active compounds read low, screened at 18.75 µg/mL (by protocol)
row,SMILES,survival
1,Cc1ccc(CNC(=O)c2sc3nc4n(c(=O)c3c2C)CCCCC4)cc1,active: 53%
2,Cc1cccc(NC(=O)c2ccc(CNS(=O)(=O)c3ccc4c(c3)C(C)(C)C(=O)N4C)cc2)c1,inactive: 75%
3,Cc1ccccc1C(=O)N(Cc1ccc(N(C)C)cc1)CC1CCCO1 (configuration not stated),inactive: 58%
4,Cc1ccc(-n2c(=O)c3c(c4cc(C)ccc4n3C)n(Cc3ccc(F)cc3)c2=O)cc1,inactive: 116%
5,CCOC(=O)C1=NN(C(=O)COc2ccccc2)C(O)(c2ccc(Br)cc2)C1 (configuration not stated),inactive: 73%
6,Cc1ccc(NC(=O)C(Cc2ccccc2)N2Cc3ccccc3C2=O)cc1Cl (configuration not stated),inactive: 77%
7,CNC(=O)c1c(-c2ccccc2)oc2ccc(OC)cc12,inactive: 90%
8,CC(C)c1ccc(NC(=O)c2ccc3c(O)c(S(=O)(=O)c4ccccc4)c(=O)[nH]c3c2)cc1,inactive: 72%
9,COc1cc(OC)c(N(C)C(=O)c2cc3c(=O)oc4ccccc4c3s2)cc1Cl,inactive: 59%
10,O=c1c2ccccc2n2c(-c3ccccc3F)nnc2n1CCc1ccccc1,inactive: 84%
11,Cc1ccc(C(=O)N(c2ccc(C)cc2)S(=O)(=O)c2ccc(Cl)cc2)cc1,inactive: 78%
12,Cc1ccc(-n2nc(C(=O)N(C)Cc3ccccc3)c3c4ccccc4n(C)c3c2=O)cc1,inactive: 108%
13,NC(=O)C1CCN(C(=O)COc2ccc(Cl)cc2Cl)CC1,inactive: 80%
14,O=C(CC1N=C2c3ccccc3N=C(SCc3cccc(Cl)c3)N2C1=O)NCCc1ccccc1 (configuration not stated),inactive: 104%
15,CCC1=C(c2ccc(C)cc2)S(=O)(=O)N=C1N1CCC(C(=O)NCCc2ccc(Cl)cc2)CC1,inactive: 86%
16,Cc1ccc(S(=O)(=O)C(CNC(=O)C(=O)NCCc2ccc(Cl)cc2)c2cccs2)cc1 (configuration not stated),inactive: 81%
17,CCCCNC(=O)CCn1c(=O)c2cccn2c2cccnc21,inactive: 103%
18,COC(=O)c1cn(CC(=O)Nc2ccc(OC)cc2)c2ccccc12,inactive: 91%
19,CCN(C(=O)c1c(C)oc2ncn(CC(C)C)c(=O)c12)c1cccc(Cl)c1,inactive: 88%
20,COc1ccc(C)cc1NC(=O)c1cc(S(=O)(=O)N2CCc3ccccc3C2)ccc1F,inactive: 64%
21,Cc1oc(-c2ccc(C(=O)NCc3ccccc3Cl)cc2)nc1CN1CCc2ccccc21,inactive: 70%
22,CCCn1c(CCC(=O)Nc2ccc(C)c(Cl)c2)nc2cccnc21,inactive: 71%

row,SMILES,survival
1,O=C(Oc1ccc(Cl)cc1)c1ccc2snnc2c1,inactive: 99%
2,O=C(O)c1cnc2ccccn2c1=O,inactive: 93%
3,Cc1ccc(C)c(Nc2nn3c(=O)c4cc5c(cc4nc3s2)OCO5)c1,active: 37%
4,CCc1ccc(NC(=O)CSc2nc(=O)n(Cc3ccncc3)c3c2CCC3)cc1,inactive: 85%
5,CCN1CCN(CCCNC(=O)Cn2c(-c3cccs3)cc3cc(F)ccc32)CC1,inactive: 113%
6,O=C(COCc1cc(-c2ccc3c(c2)OCO3)on1)Nc1cc(C(F)(F)F)ccc1Cl,inactive: 124%
7,Cc1cc2c(cc1S(=O)(=O)CCC(=O)N1CCCCC1C)OCC(=O)N2 (configuration not stated),inactive: 81%
8,CCOC(=O)N1CCc2c(sc(NCc3cccs3)c2C(=O)Nc2ccc(OC)cc2OC)C1,inactive: 90%
9,COc1ccccc1N1CCN(S(=O)(=O)CCNC(=O)Cc2ccc(Cl)cc2)CC1,inactive: 84%
10,O=c1c(S(=O)(=O)c2ccccc2)cn(Cc2cccc(F)c2)c2cc(N3CCCC3)c(F)cc12,inactive: 104%
11,CCCS(=O)(=O)N1CC(=O)N(c2ccc(C)cc2C)C(C)(C(=O)NC2CCCCCC2)C1 (configuration not stated),inactive: 67%
12,O=C(Cn1c(=O)nc(-c2ccccc2)c2cc(Cl)ccc21)NCc1ccc(Cl)cc1,inactive: 40%
13,COc1ccc(CCNS(=O)(=O)c2cc(-c3onc(C)c3C)ccc2OC)cc1OC,active: -1%
14,CCOc1ccc(CCNC(=O)c2ccc3c(c2)N(Cc2ccccc2F)C(=O)c2ccccc2S3=O)cc1OCC (configuration not stated),inactive: 82%
15,O=C(CCS(=O)(=O)c1cc2c3c(c1)CCN3C(=O)CC2)Nc1cccc(Br)c1,inactive: 83%
16,O=C(Nc1cnn(Cc2ccc(Cl)cc2Cl)c1)c1noc2c1CCc1ccccc1-2,active: 47%
17,COc1cc(OC)c(NC(=O)C(Cc2ccccc2)NS(=O)(=O)c2cccc3nsnc23)cc1Cl (configuration not stated),inactive: 71%
18,CN(C)c1ccc(NC(=O)CSc2nc3ccsc3c(=O)n2CCCCCC(=O)O)cc1,inactive: 96%
19,Cc1c(C(=O)N(Cc2ccco2)Cc2ccccc2Cl)oc2ccc(F)cc12,active: 42%
20,COCCN1Cc2cc3cc4c(cc3nc2SC1=Nc1cccc(OC)c1)OCO4,inactive: 87%
21,Cc1ccc(NC(=O)C(C)Sc2nc(N)cc(N)n2)c(C)c1 (configuration not stated),inactive: 76%
22,COc1ccc(OC(C)C(=O)NCc2nc(-c3cccc(C)c3)no2)cc1 (configuration not stated),inactive: 61%

row,SMILES,survival
1,CCS(=O)(=O)c1ccccc1C(=O)Nc1ccc(-c2nc3ccccc3s2)cc1,inactive: 78%
2,CC(C)CCNC(=O)CN1C(=O)c2cccnc2Sc2ccccc21,inactive: 84%
3,COc1ccc(CC(=O)Nc2cc(-c3cn4cccnc4n3)ccc2OC)cc1,inactive: 91%
4,CCCCC(=O)NC1(C(F)(F)F)C(=O)Nc2c1c(=O)[nH]c(=O)n2-c1ccc(C)c(C)c1 (configuration not stated),inactive: 69%
5,O=C(Nc1ccc2nc(SCCOc3ccccc3Cl)sc2c1)c1ccc2c(c1)OCO2,inactive: 68%
6,Cc1ccc(NC(=O)c2ccc(CNS(=O)(=O)c3ccc4c(c3)C(C)(C)C(=O)N4C)cc2)cc1F,inactive: 57%
7,CCOc1ccc(CCNC(=O)CSc2nnnn2-c2ccc(C)cc2C)cc1OCC,inactive: 56%
8,CCOC(=O)C1=C(CN(C)Cc2ccccc2)NC(=O)NC1c1ccc(OC)cc1 (configuration not stated),inactive: 94%
9,CC(C)COC(=O)c1nnsc1NC(=O)Nc1ccccc1,inactive: 76%
10,O=C(CSc1nnc(COc2ccccc2)o1)N1CCCC1,inactive: 80%
11,COc1ccc2c(c1)c1c(c(=O)n(-c3ccccc3)c(=O)n1CC(=O)NCc1ccc(C)cc1)n2C,inactive: 83%
12,CSc1nn(Cc2cccc(Cl)c2)c(N(C(C)=O)C(C)=O)c1S(=O)(=O)c1ccccc1,inactive: 73%
13,COc1ccc(CC(=O)N(Cc2nc(-c3ccc(C)cc3)no2)C(C)C)cc1,active: 31%
14,O=C(CSc1nc2nccnc2c(=O)n1CCc1c[nH]c2ccccc12)Nc1ccc(F)cc1,active: 29%
15,COc1ccc(C2C(=O)N(C3CCC(C)CC3)CC(=O)N2C2CCCC2)cc1OC (configuration not stated),active: -2%
16,COc1cccc(NC(=O)CSC2=Nc3ccccc3C3=NC(CC(=O)NCc4ccc5c(c4)OCO5)C(=O)N23)c1 (configuration not stated),inactive: 100%
17,CCCCNC(=O)c1cnc2sc(N3CCCCCC3)nn2c1=O,inactive: 79%
18,COc1ccc(C)cc1NC(=O)Nc1ccccc1OCc1cc(=O)n2ccccc2n1,inactive: 101%
19,c1ccc(-n2nnnc2NC2CCCCCC2)cc1,inactive: 85%
20,Cc1cc(C)c(NC(=O)C(=O)NCC(c2cccnc2)N2CCN(Cc3ccccc3)CC2)c(C)c1 (configuration not stated),inactive: 86%
21,O=C(c1cccnc1)N1N=C(C(F)(F)F)CC1(O)c1cccnc1 (configuration not stated),inactive: 93%
22,Cc1ccccc1-c1noc(-c2ccc(N3CCN(C)CC3)c([N+](=O)[O-])c2)n1,inactive: 72%

row,SMILES,survival
1,Cc1c(C(=O)OC2CCCCCC2)[nH]c2c1C(=O)CC(c1ccc(N(C)C)cc1)C2 (configuration not stated),inactive: 118%
2,COc1cc(OC)cc(C(=O)Nc2cc(-c3nc4cccnc4s3)ccc2C)c1,active: 43%
3,CCC(C(=O)Nc1ccc(C(=O)OC)cc1)n1nc(-c2ccc(C)c(C)c2)ccc1=O (configuration not stated),inactive: 86%
4,CCOc1ccc(Nc2sc(C(=O)c3cccc(OC)c3)c(N)c2S(=O)(=O)c2ccccc2)cc1,inactive: 84%
5,COc1ccc(NC(=O)C2CCN(S(=O)(=O)c3ccc4c(c3)CCCC(=O)N4)CC2)c(OC)c1,inactive: 115%
6,O=C(O)CC1CCS(=O)(=O)C1 (configuration not stated),inactive: 62%
7,Cn1c(=O)c(=O)n(C)c2cc(S(=O)(=O)N3CCCC3C(=O)Nc3ccc(F)cc3)ccc21 (configuration not stated),inactive: 87%
8,Cc1ccc(NC(=O)CSc2ccc(-c3ccccn3)nn2)cc1F,inactive: 49%
9,COc1ccc(S(=O)(=O)N(CC(=O)NCCSCc2ccccc2)c2ccc(C)cc2)cc1,inactive: 54%
10,CCOc1ccc(CNC(=O)Cn2ccc3cc(S(=O)(=O)N4CCCCC4)ccc32)cc1,inactive: 96%
11,COc1ccc(-n2cc(C(=O)OCc3ccc(Cl)cc3)c3ccccc3c2=O)cc1,inactive: 100%
12,CC(C)CNC(=O)c1cccc(NC(=O)C(C)C)c1,inactive: 57%
13,CN(C)c1ccc(C(CNS(=O)(=O)c2ccc(F)cc2)N2CCOCC2)cc1 (configuration not stated),inactive: 92%
14,Cc1sc(-n2c(C)cc(/C=C(\C#N)C(=O)NCc3ccco3)c2C)c(C#N)c1C,inactive: 84%
15,Cc1cc2cc3c(cc2nc1SCC(=O)OC(C)C)OCO3,inactive: 91%
16,COc1ccccc1NC(=O)C(Cc1ccccc1)NS(=O)(=O)c1cccc2nsnc12 (configuration not stated),inactive: 89%
17,COc1cc(Cl)c(C)cc1NC(=O)c1sc2nc(C)cc(C)c2c1N,inactive: 99%
18,COc1cc(C(=O)N(Cc2cccnc2)c2nc3cc(C)c(C)cc3s2)cc(OC)c1OC,inactive: 49%
19,CCOC(=O)COc1ccc(F)cc1C(=O)c1ccn2nc(-c3ccc(C)cc3)cc2n1,inactive: 80%
20,CN1C(=O)C(C)(C)c2cc(S(=O)(=O)N3CCCC3C(=O)Nc3ccc(F)cc3)ccc21 (configuration not stated),inactive: 55%
21,COC(=O)c1ccc(Cl)cc1NC(=O)N(Cc1ccc(OC)cc1)C1CCN(C(C)=O)CC1,active: -5%
